# Data taken from the supplement of paper PMC8728848.
# Some of the results follow.
# B1: DrGRIFIN (Danio rerio), Q6DGJ1 (protein)
# chain: MTLRFEASCPDGLCPGWSVILKGETPPEASKFEINFLCDRDDRVAFHFNPRFTESDIICNSYMANRWGQEERCNHFPLGVEEPFQIEIYSDNDHFHVYIDKAKVMQYKHRVEDLKTITKLQVVNDVKISSLEITKKLFY
# Assays:
# Test in all cases: glycan array binding signal (z-score within array); higher = stronger binding
# Conditions in all cases: glycan notation: IUPAC condensed, linker removed
# Fuc(a1-3)GlcNAc = molecular target: Fuc(a1-3)GlcNAc
# Outline: (§1)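 From the Consortium for Functional Glycomics database, 3228 arrays were curated, keeping only those whose protein sequence was available. Binding is given as a within-array Z-score averaged across arrays sharing a protein sequence and across linkers. Negative Z-scores can be read as non-binding.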
# [1] = molecular target: Fuc(a1-3)[Gal(b1-4)]Glc6S
# Outline: as §1
# [2] = molecular target: Fuc(a1-3)[Gal(b1-4)]GlcNAc
# Outline: as §1
# [3] = molecular target: Fuc(a1-3)[Gal(b1-4)]GlcNAc(b1-2)Man
# Outline: as §1
# [4] = molecular target: Fuc(a1-3)[Gal(b1-4)]GlcNAc(b1-2)Man(a1-3)[Fuc(a1-3)[Gal(b1-4)]GlcNAc(b1-2)Man(a1-6)]Man(b1-4)GlcNAc(b1-4)GlcNAc
# Outline: as §1
# [5] = molecular target: Fuc(a1-3)[Gal(b1-4)]GlcNAc(b1-2)Man(a1-3)[Fuc(a1-3)[Gal(b1-4)]GlcNAc(b1-2)Man(a1-6)]Man(b1-4)GlcNAc(b1-4)[Fuc(a1-6)]GlcNAc
# Outline: as §1
# [6] = molecular target: Fuc(a1-3)[Gal(b1-4)]GlcNAc(b1-3)Gal(b1-3)[Fuc(a1-4)]GlcNAc
# Outline: as §1
# [7] = molecular target: Fuc(a1-3)[Gal(b1-4)]GlcNAc(b1-3)Gal(b1-4)[Fuc(a1-3)]GlcNAc
# Outline: as §1
# [8] = molecular target: Fuc(a1-3)[Gal(b1-4)]GlcNAc(b1-3)Gal(b1-4)[Fuc(a1-3)]GlcNAc(b1-3)Gal(b1-4)[Fuc(a1-3)]GlcNAc
# Outline: as §1
# [9] = molecular target: Fuc(a1-3)[Gal(b1-4)]GlcNAc(b1-3)GalNAc
# Outline: as §1
# [10] = molecular target: Fuc(a1-3)[Gal(b1-4)]GlcNAc(b1-6)GalNAc
# Outline: as §1
# [11] = molecular target: Fuc(a1-3)[Gal(b1-4)]GlcNAc(b1-6)[Gal(b1-3)GlcNAc(b1-3)]Gal(b1-4)Glc
# Outline: as §1
# [12] = molecular target: Fuc(a1-3)[Gal(b1-4)]GlcNAc6S
# Outline: as §1
# [13] = molecular target: Fuc(a1-3)[Gal3S(b1-4)]Glc
# Outline: as §1
# [14] = molecular target: Fuc(a1-3)[Gal3S(b1-4)]GlcNAc
# Outline: as §1
# [15] = molecular target: Fuc(a1-3)[Gal3S(b1-4)]GlcNAc6S
# Outline: as §1
# [16] = molecular target: Fuc(a1-3)[GalNAc(b1-4)]GlcNAc
# Outline: as §1
# [17] = molecular target: Fuc(a1-3)[GalNAc(b1-4)]GlcNAc6S
# Outline: as §1
# Fuc(a1-4)GlcNAc = molecular target: Fuc(a1-4)GlcNAc
# Outline: as §1
# Fuc(b1-3)GlcNAc = molecular target: Fuc(b1-3)GlcNAc
# Outline: as §1
# Gal(a1-2)Gal = molecular target: Gal(a1-2)Gal
# Outline: as §1
# Gal(a1-3)Gal = molecular target: Gal(a1-3)Gal
# Outline: as §1
# Gal(a1-3)Gal(b1-3)GlcNAc = molecular target: Gal(a1-3)Gal(b1-3)GlcNAc
# Outline: as §1
# [18] = molecular target: Gal(a1-3)Gal(b1-3)GlcNAc(b1-2)Man
# Outline: as §1
# [19] = molecular target: Gal(a1-3)Gal(b1-3)GlcNAc(b1-2)Man(a1-3)[Gal(a1-3)Gal(b1-3)GlcNAc(b1-2)Man(a1-6)]Man(b1-4)GlcNAc(b1-4)GlcNAc
# Outline: as §1
# [20] = molecular target: Gal(a1-3)Gal(b1-3)GlcNAc(b1-3)GalNAc
# Outline: as §1
# [21] = molecular target: Gal(a1-3)Gal(b1-3)GlcNAc(b1-6)GalNAc
# Outline: as §1
# [22] = molecular target: Gal(a1-3)Gal(b1-3)[Fuc(a1-4)]GlcNAc(b1-2)Man(a1-3)[Gal(a1-3)Gal(b1-3)[Fuc(a1-4)]GlcNAc(b1-2)Man(a1-6)]Man(b1-4)GlcNAc(b1-4)GlcNAc
# Outline: as §1
# Gal(a1-3)Gal(b1-4)Glc = molecular target: Gal(a1-3)Gal(b1-4)Glc
# Outline: as §1
# Gal(a1-3)Gal(b1-4)GlcNAc = molecular target: Gal(a1-3)Gal(b1-4)GlcNAc
# Outline: as §1
# [23] = molecular target: Gal(a1-3)Gal(b1-4)GlcNAc(b1-2)Man
# Outline: as §1
# [24] = molecular target: Gal(a1-3)Gal(b1-4)GlcNAc(b1-2)Man(a1-3)[Gal(a1-3)Gal(b1-4)GlcNAc(b1-2)Man(a1-6)]Man(b1-4)GlcNAc(b1-4)GlcNAc
# Outline: as §1
# [25] = molecular target: Gal(a1-3)Gal(b1-4)GlcNAc(b1-3)GalNAc
# Outline: as §1
# [26] = molecular target: Gal(a1-3)Gal(b1-4)GlcNAc(b1-6)GalNAc
# Outline: as §1
# [27] = molecular target: Gal(a1-3)Gal(b1-4)[Fuc(a1-3)]GlcNAc
# Outline: as §1
# [28] = molecular target: Gal(a1-3)Gal(b1-4)[Fuc(a1-3)]GlcNAc(b1-2)Man(a1-3)[Gal(a1-3)Gal(b1-4)[Fuc(a1-3)]GlcNAc(b1-2)Man(a1-6)]Man(b1-4)GlcNAc(b1-4)GlcNAc
# Outline: as §1
# Gal(a1-3)GalNAc = molecular target: Gal(a1-3)GalNAc
# Outline: as §1
# [29] = molecular target: Gal(a1-3)[Gal(a1-4)]Gal(b1-4)GlcNAc
# Outline: as §1
# [30] = molecular target: Gal(a1-4)Gal(b1-3)GlcNAc(b1-2)Man(a1-3)[Gal(a1-4)Gal(b1-3)GlcNAc(b1-2)Man(a1-6)]Man(b1-4)GlcNAc(b1-4)GlcNAc
# Outline: as §1
# Gal(a1-4)Gal(b1-4)Glc = molecular target: Gal(a1-4)Gal(b1-4)Glc
# Outline: as §1
# Gal(a1-4)Gal(b1-4)GlcNAc = molecular target: Gal(a1-4)Gal(b1-4)GlcNAc
# Outline: as §1
# [31] = molecular target: Gal(a1-4)Gal(b1-4)GlcNAc(b1-2)Man(a1-3)[Gal(a1-4)Gal(b1-4)GlcNAc(b1-2)Man(a1-6)]Man(b1-4)GlcNAc(b1-4)GlcNAc
# Outline: as §1
# [32] = molecular target: Gal(a1-4)Gal(b1-4)GlcNAc(b1-3)Gal(b1-4)Glc
# Outline: as §1
# Gal(a1-4)GlcNAc = molecular target: Gal(a1-4)GlcNAc
# Outline: as §1
# Gal(a1-6)Glc = molecular target: Gal(a1-6)Glc
# Outline: as §1
binder,measurement,setting,value
B1,glycan array binding signal (z-score),Fuc(a1-3)GlcNAc,-0.114
same,glycan array binding signal (z-score),[1],-0.176
same,glycan array binding signal (z-score),[2],-0.135
same,glycan array binding signal (z-score),[3],-0.171
same,glycan array binding signal (z-score),[4],-0.118
same,glycan array binding signal (z-score),[5],-0.176
same,glycan array binding signal (z-score),[6],-0.152
same,glycan array binding signal (z-score),[7],-0.188
same,glycan array binding signal (z-score),[8],-0.195
same,glycan array binding signal (z-score),[9],-0.162
same,glycan array binding signal (z-score),[10],-0.192
same,glycan array binding signal (z-score),[11],-0.109
same,glycan array binding signal (z-score),[12],-0.142
same,glycan array binding signal (z-score),[13],-0.175
same,glycan array binding signal (z-score),[14],-0.229
same,glycan array binding signal (z-score),[15],-0.096
same,glycan array binding signal (z-score),[16],-0.141
same,glycan array binding signal (z-score),[17],-0.135
same,glycan array binding signal (z-score),Fuc(a1-4)GlcNAc,-0.133
same,glycan array binding signal (z-score),Fuc(b1-3)GlcNAc,-0.107
same,glycan array binding signal (z-score),Gal(a1-2)Gal,0.052
same,glycan array binding signal (z-score),Gal(a1-3)Gal,-0.12
same,glycan array binding signal (z-score),Gal(a1-3)Gal(b1-3)GlcNAc,-0.132
same,glycan array binding signal (z-score),[18],-0.099
same,glycan array binding signal (z-score),[19],-0.014
same,glycan array binding signal (z-score),[20],-0.107
same,glycan array binding signal (z-score),[21],0.004
same,glycan array binding signal (z-score),[22],-0.14
same,glycan array binding signal (z-score),Gal(a1-3)Gal(b1-4)Glc,-0.186
same,glycan array binding signal (z-score),Gal(a1-3)Gal(b1-4)GlcNAc,-0.124
same,glycan array binding signal (z-score),[23],-0.034
same,glycan array binding signal (z-score),[24],3.39
same,glycan array binding signal (z-score),[25],-0.136
same,glycan array binding signal (z-score),[26],-0.187
same,glycan array binding signal (z-score),[27],-0.144
same,glycan array binding signal (z-score),[28],-0.146
same,glycan array binding signal (z-score),Gal(a1-3)GalNAc,-0.133
same,glycan array binding signal (z-score),[29],-0.169
same,glycan array binding signal (z-score),[30],-0.152
same,glycan array binding signal (z-score),Gal(a1-4)Gal(b1-4)Glc,-0.143
same,glycan array binding signal (z-score),Gal(a1-4)Gal(b1-4)GlcNAc,-0.209
same,glycan array binding signal (z-score),[31],-0.124
same,glycan array binding signal (z-score),[32],-0.15
same,glycan array binding signal (z-score),Gal(a1-4)GlcNAc,-0.212
same,glycan array binding signal (z-score),Gal(a1-6)Glc,-0.187
